Measurements published in the antibiotic and cytotoxicity screens of Wong et al. (2023).
The list shows a part of the results.

How the values were obtained:
HSkMC = human skeletal muscle cells; experiment: cytotoxicity call (relative viability < 0.9); conditions: 10 µM
HepG2 = experiment: cytotoxicity call (relative viability < 0.9); conditions: 10 µM
S. aureus RN4220 = experiment: growth inhibition call (relative growth <= 0.2); conditions: 50 µM

CCN(CC)CCC/N=C1/N=C(CC(=O)/C=C/c2ccc(O)c(OC)c2)C[C@@H](c2ccc(O)c(OC)c2)S1
cytotoxicity call (HSkMC): inactive
cytotoxicity call (HepG2): inactive
growth inhibition call (S. aureus RN4220): inactive

COc1ccc(CN(C)C[C@H]2Oc3ccc(NC(=O)CCN4CCOCC4)cc3C(=O)N([C@@H](C)CO)C[C@H]2C)cc1
cytotoxicity call (HSkMC): inactive
cytotoxicity call (HepG2): inactive
growth inhibition call (S. aureus RN4220): inactive

C[C@@H]1CN([C@@H](C)CO)C(=O)c2cc(NC(=O)Cn3cnnn3)ccc2O[C@@H]1CN(C)C(=O)Nc1ccc(C(F)(F)F)cc1
cytotoxicity call (HSkMC): inactive
cytotoxicity call (HepG2): inactive
growth inhibition call (S. aureus RN4220): inactive

CC(=O)N(C)C[C@@H]1Oc2ncc(C#C[C@H](C)O)cc2C(=O)N([C@@H](C)CO)C[C@H]1C
cytotoxicity call (HSkMC): inactive
cytotoxicity call (HepG2): inactive
growth inhibition call (S. aureus RN4220): inactive

CCCc1cc(=O)[nH]c(=S)[nH]1
cytotoxicity call (HSkMC): inactive
cytotoxicity call (HepG2): inactive
growth inhibition call (S. aureus RN4220): inactive

CC(C)NC(=O)Nc1ccc2c(c1)C(=O)N([C@@H](C)CO)C[C@H](C)[C@H](CN(C)C(=O)Nc1ccc(F)cc1)OCCCC[C@@H](C)O2
cytotoxicity call (HSkMC): inactive
cytotoxicity call (HepG2): inactive
growth inhibition call (S. aureus RN4220): inactive

C[C@@H]1CN([C@@H](C)CO)C(=O)c2cc(NC(=O)Nc3ccc(C(F)(F)F)cc3)ccc2O[C@@H](C)CCCCO[C@H]1CN(C)CC1CCCCC1
cytotoxicity call (HSkMC): inactive
cytotoxicity call (HepG2): inactive
growth inhibition call (S. aureus RN4220): inactive

CN1CCN(C(=O)C[C@H]2CC[C@H]3[C@@H](COc4ccc(NC(=O)c5ccc(F)c(F)c5)cc4C(=O)N3C)O2)CC1
cytotoxicity call (HSkMC): inactive
cytotoxicity call (HepG2): inactive
growth inhibition call (S. aureus RN4220): inactive

C[C@@H]1CCCCO[C@H](CN(C)CC2CCCCC2)[C@@H](C)CN([C@H](C)CO)C(=O)c2cc(NC(=O)CCCN(C)C)ccc2O1
cytotoxicity call (HSkMC): inactive
cytotoxicity call (HepG2): inactive
growth inhibition call (S. aureus RN4220): inactive

CCO[C@@H]1OC(C(=O)N2CCCCCCC2)=C[C@H](c2coc3ccccc3c2=O)[C@H]1CCCOC(=O)NCCCCCC(=O)NO
cytotoxicity call (HSkMC): inactive
cytotoxicity call (HepG2): inactive
growth inhibition call (S. aureus RN4220): inactive

C[C@@H]1CN([C@@H](C)CO)C(=O)c2cc(NC(=O)Nc3ccc(C(F)(F)F)cc3)ccc2O[C@@H](C)CCCCO[C@@H]1CN(C)C(=O)Nc1ccccc1
cytotoxicity call (HSkMC): inactive
cytotoxicity call (HepG2): inactive
growth inhibition call (S. aureus RN4220): inactive

Cc1ccc(S(=O)(=O)Nc2ccc3c(c2)CC(=O)N([C@H](C)CO)C[C@@H](C)[C@@H](CN(C)Cc2ccc(-c4ccccc4)cc2)O3)cc1
cytotoxicity call (HSkMC): active
cytotoxicity call (HepG2): active
growth inhibition call (S. aureus RN4220): inactive

COCC#Cc1ccc([C@H]2[C@@H](CO)N3C(=O)CN(C(=O)c4ccncc4)C[C@H]23)cc1
cytotoxicity call (HSkMC): inactive
cytotoxicity call (HepG2): inactive
growth inhibition call (S. aureus RN4220): inactive

O=C(CCCCC(=O)N/N=C/[C@H](O)[C@@H](O)[C@H](O[C@@H]1O[C@H](CO)[C@H](O)[C@H](O)[C@H]1O)[C@H](O)CO)NO
cytotoxicity call (HSkMC): inactive
cytotoxicity call (HepG2): inactive
growth inhibition call (S. aureus RN4220): inactive

Cc1noc(C)c1NC(=O)Nc1ccc2c(c1)CC(=O)N([C@H](C)CO)C[C@H](C)[C@H](CN(C)Cc1ccc(-c3ccccc3)cc1)O2
cytotoxicity call (HSkMC): inactive
cytotoxicity call (HepG2): inactive
growth inhibition call (S. aureus RN4220): inactive

C=CCNC(=O)[C@@H]1[C@H]2C(=O)O[C@H](c3ccccc3)[C@H](c3ccccc3)N2[C@H](c2ccccc2OCCO)[C@@]12C(=O)Nc1ccc(C#CC3=CCCCC3)cc12
cytotoxicity call (HSkMC): active
cytotoxicity call (HepG2): inactive
growth inhibition call (S. aureus RN4220): inactive

Cc1noc(C)c1NC(=O)Nc1ccc2c(c1)C(=O)N([C@@H](C)CO)C[C@H](C)[C@H](CN(C)Cc1ccc(Oc3ccccc3)cc1)O2
cytotoxicity call (HSkMC): inactive
cytotoxicity call (HepG2): inactive
growth inhibition call (S. aureus RN4220): inactive

COc1ccc(NC(=O)Nc2cccc3c2O[C@H](CN(C)Cc2ccc(Cl)c(Cl)c2)[C@@H](C)CN([C@H](C)CO)C3=O)cc1
cytotoxicity call (HSkMC): inactive
cytotoxicity call (HepG2): inactive
growth inhibition call (S. aureus RN4220): inactive

C[C@@H]1CN([C@@H](C)CO)C(=O)Cc2cc(NC(=O)Nc3ccc(C(F)(F)F)cc3)ccc2O[C@@H]1CN(C)C(=O)Nc1ccccc1
cytotoxicity call (HSkMC): active
cytotoxicity call (HepG2): active
growth inhibition call (S. aureus RN4220): inactive

Cc1noc(C)c1NC(=O)Nc1cccc2c1O[C@@H](CN(C)S(=O)(=O)c1cn(C)cn1)[C@@H](C)CN([C@@H](C)CO)C2=O
cytotoxicity call (HSkMC): inactive
cytotoxicity call (HepG2): inactive
growth inhibition call (S. aureus RN4220): inactive

C[C@H]1CN([C@@H](C)CO)C(=O)c2cc(NS(=O)(=O)c3ccc(F)cc3)ccc2O[C@@H]1CN(C)Cc1ccc(Cl)c(Cl)c1
cytotoxicity call (HSkMC): active
cytotoxicity call (HepG2): active
growth inhibition call (S. aureus RN4220): inactive

CCCCc1oc2ccc(NS(C)(=O)=O)cc2c1C(=O)c1ccc(OCCCN(CCCC)CCCC)cc1
cytotoxicity call (HSkMC): active
cytotoxicity call (HepG2): active
growth inhibition call (S. aureus RN4220): active

O=C(C[C@@H]1C[C@H]2c3cc(NS(=O)(=O)c4ccc(F)cc4)ccc3O[C@H]2[C@@H](CO)O1)NC1CCCC1
cytotoxicity call (HSkMC): inactive
cytotoxicity call (HepG2): inactive
growth inhibition call (S. aureus RN4220): inactive

OCCN1CC(O)C(O)C(O)C1CO (configuration not stated)
cytotoxicity call (HSkMC): inactive
cytotoxicity call (HepG2): inactive
growth inhibition call (S. aureus RN4220): inactive
